Experimental data from ChEMBL document CHEMBL4888484, “Replenishing the malaria drug discovery pipeline: Screening and hit evaluation of the MMV Hit Generation Library 1 (HGL1) against asexual blood stage Plasmodium falciparum ,using a nano luciferase reporter read-out” (2022).
The whole screen tested about 4,800 compounds, of which about 410 (8.5%) showed an effect of 50% or more. The list shows a part of the results.

system: Plasmodium falciparum; experiment: Confirmatory screen in NF54 pLDH assay, in single point, at 2uM, 72h; format: functional, Erythrocyte; details: timepoint 72 hour

SMILES	% Inhibition
CC(C)(C)c1cc(N)c2ccccc2n1	-6%
O=C(O)c1csc(-c2csc(CCN3C(=O)c4ccccc4C3=O)n2)n1	13%
O=C(COc1ccccc1)N1CC[C@H](c2nc(C3CCOCC3)no2)C1	11%
Cc1ccc(Cn2c(=O)c(N3CCC[C@H](C(=O)NCCc4ccco4)C3)nc3ccccc32)cc1	9%
CC1(C)C2OCCCC2C1(N)C(=O)Nc1cn[nH]c1 (stereo not given)	10%
CC(CO)(CO)NC(=O)c1ccc(Br)cc1	13%
Fc1cccc(F)c1-n1c(COc2ccc(Cl)cc2)csc1=S	-5%
COC(=O)[C@@H]1[C@@H](NC(=O)C2CCCC2)CCN1C(C)=O	1%
C[C@H](C(=O)NCCc1ccccc1)C1CCOCC1	-1%
NC(=O)C1CCCCCC1NC(=O)c1nccnc1N (stereo not given)	-7%
c1cncc(CN2CCN(C3CCCCCC3)CC2)c1	12%
Cc1ccc(C(=O)Nc2ccc(N3CCN(CCC#N)CC3)cc2C(=O)O)cc1	-6%
N#CC(c1nc2ccccc2s1)c1nc2ccccc2s1	-5%
CCCNC(=O)c1cn2ccnc(-c3ccc(C)cc3)c2n1	9%
O=C(c1sc2ccccc2c1Cl)n1nnc2ccccc21	3%
O=C(Nc1ccc2c(c1)CNCC2)C1CC1c1ccc(F)c(F)c1 (stereo not given)	15%
CCN(c1ccc(C(=O)N(C)C2(C#N)CCC2)cc1)C(C)C	7%
COCc1cc2nn(CC(=O)Nc3ccc(F)cc3C)c(=O)n2c(-c2ccccc2)n1	-20%
CCOc1ccc(NC(=O)c2ccc3c(c2)N(CC)[C@@H]2CCCCN2C3=O)cc1	10%
Cn1nc(C2CC2)nc1COc1cc(C(F)F)nc2ccc(Cl)cc12	3%
CC(C)c1ccc(-c2n[nH]nc2C(=O)c2ccccc2N)cc1	11%
O=C(NCc1cccc(F)c1)[C@H]1CCCN(c2nc3ccccc3n(Cc3ccccc3)c2=O)C1	5%
CC(C)(C)c1cc(N)nc(C(C)(C)C)n1	-5%
O=C1[C@H]2C(Cc3c[nH]c4ccccc34)N[C@@]3(C(=O)Nc4ccc(F)cc43)[C@H]2C(=O)N1CC1CCCO1 (stereo not given in full)	-20%
Cn1cncc1CC(=O)Nc1ccnc(NC(=O)OC(C)(C)C)c1	100%
COc1ccc(-c2nccn3cc(C(=O)NCCN(C)C4CCCCC4)nc23)cc1	5%
CN1CCN(C(=O)CNC(=O)c2cccc(Cl)c2)CC1	8%
Cc1nn(Cc2nnn(C)n2)c(C)c1Br	-12%
CS(=O)(=O)CC1(CNC(=O)c2ccc(Br)cc2)CC1	11%
O=C(CCC(=O)Nc1cccnc1)NCc1ccc2c(c1)OCO2	6%
